B1: CPEB3 Ribozyme (parent)
chain: UAACAGGGGGCCACAGCAGAAGCGUUCACGUCGCAGCCCCUGUCAGAUUCUGGUGAAUCUGCGAAUUCUGCUGUAUAUCUC

From the RNAGym collection of RNA variant scans (doi:10.1093/nar/gkz1192) come the findings set out here.

Read counts are not given, so values of variants with three or more changes are uncertain.

This data set covers variants of B1. In words: self-cleavage, relative activity (ratio to wild type); higher = more cleavage; in vitro, sequencing. The method in brief: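 Relative activity compares each variant's cleaved/total read fraction with that of the unmutated ribozyme. To get these fractions, barcoded CPEB3 ribozyme libraries from rounds of error-prone PCR were transcribed with T7 RNA polymerase for 5 hours at 37°C and then given 15 min of DNase I treatment before EDTA was added. The RNAs were reverse transcribed with template switching and sequenced on Illumina, and DNA sequencing linked barcodes to variants. A minimum of 5 reads applied, and three batches were averaged.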
With G22A A28G U67C U80C, the self-cleavage was found to be 0.06. As for A21U U41A A64G A65G, the self-cleavage amounted to 0.14.

Take G22A A35G C39U U41C A64G: the self-cleavage turned out to be 0.23. For the variant A21G U41C A57G C68U, the self-cleavage was 0.25. For A21U C23A U67A, the self-cleavage is 0.15. The result for A21U C23A U25C U72A reads 0.05; that for A21U U51C G53U A57U U67A U69C, 0.07. The result for A21U A28G U31A U41C U49C U60C G73A reads 0.07; that for A21G U54C A57U, 0.32. As for A21U C38A A45U U51A G52A A75U U78C, the self-cleavage worked out at 0.07.

Take A21G U54A U58C U74G: the self-cleavage was found to be 0.19. G22A A35G A75U: the self-cleavage turned out to be 0.77. Consider A21G U60A A77U, for which the self-cleavage was 0.18. The result for A21G U58A A64G U72A reads 0.33; that for A21U U51C A64G, 0.08. Take A21U U25G C27U A47G U49A A75G: the self-cleavage came to 0.04.

For the variant A21G U76C C81U, the self-cleavage was 0.88. The result for A21U G22A U25C U58A reads 0.11; that for A21U U48C U66C, 0.18; that for A21U U31A A56U A57G, 0.09. The figure for A21G U72C U80C is 0.98. The result for A21G U60A U69A U78C reads 0.08; that for A21U C29G A45U A57G A64G U69A, 0.09. As to A21U A56G U58A, the self-cleavage was 0.14. For the variant A21G U48C U66C, the self-cleavage turned out to be 0.23. The result for A21G U48C A64G reads 0.2. The figure for A21G U51C U72C U80A is 0.21; for A21G U69C U78C it is 0.23; for A21U G46U U69C it is 0.23. Take A21G U54A A65G U72G: the self-cleavage turned out to be 0.22.

For the variant A21U U43C U67C, the self-cleavage worked out at 0.12. For A21U U51C G53U A64G U69C, the self-cleavage was found to be 0.11. The result for A21G U41G U48C U58C reads 0.31; that for A21U G24A C27A G42A, 0.11; that for A21G U43C A65G, 0.14. On to A21G U41A U60C U80C, for which the self-cleavage was 0.19.

As to A21G U74A U80C, the self-cleavage is 0.88. For the variant A21U C39A U41A, the self-cleavage stood at 0.21. The result for A21U U26G C50U U76C A77G reads 0.18; that for A21U A64G U72C, 0.17; that for A21U U25C A47G, 0.43. In the case of A21G U43C G52A, the self-cleavage turned out to be 0.17.

With A21U U31C U74C U78C, the self-cleavage was found to be 0.44.

For A21U U51A U69A C79U, the self-cleavage amounted to 0.14. Turning to A21G U41A A47G U51A U72A U80A, the self-cleavage worked out at 0.11.

Regarding A21G U43A U54A U80C, the self-cleavage was determined as 0.84. The figure for A21U G36A C37U U51C A56U is 0.09; for A21U U41C A75U it is 0.26; for A21U U41C A75G it is 0.12. A21G U49A A57G: the self-cleavage is 0.14. The result for A21G U66C A77C reads 1.04; that for A21U U41A U80C, 0.26. The result for A21G U72C A75G reads 0.3; that for A21U U25C U66C, 0.15. Regarding A21G U69C C71A, the self-cleavage was 0.11.

On to A21U U74C U78A, for which the self-cleavage amounted to 0.62.

For the variant A21U U54C U60A C62G U67C A75G, the self-cleavage is 0.04. Regarding A21U A28G A47G, the self-cleavage came to 0.16. Take A21U A28G A47U: the self-cleavage amounted to 0.14. The figure for A21G U67C G73A is 0.15; for A21G U51C A57G A65G it is 0.18. The figure for A21G U48C U76C U78C is 0.25. Consider A21U U74C A77G, for which the self-cleavage amounted to 0.83. As to A21U A45G U51C U78A, the self-cleavage was found to be 0.22. The figure for A21U C27U A56U A57U U78A is 0.17; for A21U U26A A47U U72A it is 0.09.

Turning to A21G U43G A57G, the self-cleavage came out at 0.4. The result for A21G U43C U54C U58C A64U reads 0.16; that for A21G U49C U72C, 0.1; that for A21U U26C U31C U60C, 0.12. For A21G U41C A47G, the self-cleavage was 0.38. Take A21U U69C U80C: the self-cleavage turned out to be 0.35.

Turning to A21G U60C U72A, the self-cleavage was found to be 0.22.

Regarding A21G U41C C50A U67C, the self-cleavage turned out to be 0.03. The figure for G22A A28C A45G is 0.18.

Consider A21U C37A U78C, for which the self-cleavage is 0.4. The figure for A21U U25C U41A is 0.4; for A21U U51A C62U U72C it is 0.17; for A21G U72A U78C it is 0.25. The figure for A21G U49C U54C G55A A64G U78C is 0.09; for A21G U41A A64G U72A it is 0.08. On to A21U U41A A45G A56U A64U U66C, for which the self-cleavage was determined as 0.09. For the variant A21U U69A U74C A75G, the self-cleavage was determined as 0.13.

Regarding A21G U51C U72G, the self-cleavage turned out to be 0.26. The result for A21U A45G U67C U69A reads 0.05; that for A21G U48C U49A A64U U76C U78C, 0.09. The figure for A21U U26C C39U A47U is 0.14; for A21G U43C A56G U69C U72A it is 0.07; for A21U U49C U51C U74A it is 0.18. With A21G U49C U69C, the self-cleavage was determined as 0.08. As for A21G U41A U54A U66C U69C U72C A75G, the self-cleavage was found to be 0.06. With A21G U41A U54C A56G C62U, the self-cleavage was 0.08.

For A21G U41A G53U A56G C59G U74A, the self-cleavage amounted to 0.03. The result for A21G U43A C50A U51G U54C U66C reads 0.44; that for A21U U48C A64G, 0.11; that for A21G U76C A77G, 0.64. The result for A21U U60C U72G A75G reads 0.08. On to A21U U49A G55A A75G, for which the self-cleavage came out at 0.18. On to A21G U58C U60C, for which the self-cleavage was determined as 0.21. The figure for A21G U60C A65G is 0.17. The figure for A21U U41C U60C U80C is 0.23. Take A21U U25C A35G C71U: the self-cleavage is 0.07.

Take G22A A28G U51C A57U: the self-cleavage came out at 0.18. As for A21U U49A A57G, the self-cleavage was 0.07. As for A21G U51A A57U G73A, the self-cleavage was found to be 0.74. The result for A21U C38G U49C G73C reads 0.06. A21G U51C G63U: the self-cleavage was 0.62.

On to A21U U25C U72G, for which the self-cleavage came out at 0.07. For the variant A21U U25C U72C, the self-cleavage amounted to 0.15. Take G22A A28G U41C U49C U51C A56G U69A: the self-cleavage was 0.14. As to A21U U51C U54C U66C A77U U80A, the self-cleavage is 0.22.

On to A21G U54G A56G U72G, for which the self-cleavage was 0.23. Consider A21G U43C U69C, for which the self-cleavage was found to be 0.18.

As for A21U G53C U72C, the self-cleavage was determined as 0.13. A21G U54A U66C: the self-cleavage is 1.16.

As for A21G U41A U58C U67C, the self-cleavage came to 0.09. With A21G U48C U78C, the self-cleavage amounted to 0.24.

Regarding A21G U54C C59U U60C, the self-cleavage came to 0.14. A21U A28U U41G U43C A47G U78C: the self-cleavage was determined as 0.21. The result for A21U U60C U66G reads 0.13; that for A21G U43C U54C A56G U69C U80C, 0.31. A21G U49C U78G: the self-cleavage is 0.12. The result for A21G U41C A45U U49C U60C reads 0.07. Turning to A21G U41A U74C, the self-cleavage was found to be 0.11. Consider A21G U41C U72C, for which the self-cleavage came to 0.56. The figure for A21U U54A A64U is 0.13; for A21G U43C A56U U60C it is 0.09. For A21G U43C U67G, the self-cleavage stood at 0.13. The figure for A21G U54A G61A is 0.23. For the variant A21G U41A U69A, the self-cleavage was 0.18. The figure for A21U C32U U41C U74G A75G is 0.03. The figure for A21G U43C U54C U58C is 0.15.

As to A21U U41A U58A, the self-cleavage is 0.15. Turning to A21U U25C A45G U49C U74C, the self-cleavage turned out to be 0.05.

In the case of A21U U31C C59U, the self-cleavage was determined as 0.11. The figure for A21U U41A U69A is 0.1; for A21G U41C A77G it is 0.49. With A21G U43C C62U, the self-cleavage is 0.11. The figure for A21U A47G U60A U80C is 0.16; for A21G U43C A56G U60C it is 0.16; for A21G U48C U58C U60A it is 0.15. As to A21G U43C A45U A47U U49C, the self-cleavage turned out to be 0.07. As for A21G U41C A47G U54C, the self-cleavage turned out to be 0.56.

For the variant A21G U41C C68G, the self-cleavage is 0.14. The result for A21G U69C U72A reads 0.16; that for A21U A28G G53A U58A, 0.1; that for A21G U43C U66C C71A, 0.2.

As for A21U U49C G63A U69C, the self-cleavage stood at 0.1. A21G U43C U66G: the self-cleavage is 0.25.

Regarding A21U U25G U69C U80A, the self-cleavage stood at 0.04. For A21G U43C C71U, the self-cleavage worked out at 0.26. For the variant A21U G33A A45G U72C, the self-cleavage came out at 0.21.

Regarding A21G U48C A57U U80A, the self-cleavage came to 0.11. The figure for A21U U25C G30A U41A is 0.08. On to A21U U58A C81A, for which the self-cleavage was found to be 0.2. A21G U51A A64U: the self-cleavage was 0.16.

As to A21U A56C A65G, the self-cleavage amounted to 0.06. As to A21U U41A A64G C68A U72A, the self-cleavage is 0.05. As for A21G U48C U72A, the self-cleavage worked out at 0.06. The figure for A21G U48C U72C is 0.35; for A21G U51C A57G U58C it is 0.22. Regarding A21G U41C A56G G73A, the self-cleavage came out at 0.83. The figure for A21U U25C U26C is 0.1. The result for A21U A35G U48C C50U G61A reads 0.19; that for A21G U43A A57G U67A, 0.29.

A21G U51A U69C: the self-cleavage came out at 0.16. The result for A21G U41C A45U A64G reads 0.16.
